# Measurements reported in PubChem BioAssay AID1461 (National Center for Advancing Translational Sciences (NCATS), 2008).
# The campaign covered roughly 220,000 compounds. About 2,300 (1%) were called active. The inconclusive results got no clear call from the source; some entries with a clear call stand among them for comparison. Calls follow the shape of the dose curve; as a rule, active = well fitted inhibition curve with a large enough effect; inconclusive = small, poorly fitted or top-dose-only effect, or effect the other way; inactive = no such curve, though single readings can be large or run the other way. No potency is given beside an inconclusive call; the fits are too rough.
# Molecular target: Neuropeptide S receptor (Homo sapiens) (UniProt Q6W5P4)
# Experiment: qHTS Assay for Antagonists of the Neuropeptide S Receptor: cAMP Signal Transduction; also: nearly all actives have a fitted effect of over 50% in size
# Settings: CHO-NPSR cells, cAMP TR-FRET, antagonist mode; activity change, negative = inhibition: at 38.3 µM (top of the series) unless noted
# % is scaled to controls: 0 for no effect and ±100 for the full control effect; potency is read from the fitted curve at half-maximal effect; tags tell the direction and shape of the fitted curve.
# Sequence of UniProt Q6W5P4 (Q6W5P4 whole entry, looked up): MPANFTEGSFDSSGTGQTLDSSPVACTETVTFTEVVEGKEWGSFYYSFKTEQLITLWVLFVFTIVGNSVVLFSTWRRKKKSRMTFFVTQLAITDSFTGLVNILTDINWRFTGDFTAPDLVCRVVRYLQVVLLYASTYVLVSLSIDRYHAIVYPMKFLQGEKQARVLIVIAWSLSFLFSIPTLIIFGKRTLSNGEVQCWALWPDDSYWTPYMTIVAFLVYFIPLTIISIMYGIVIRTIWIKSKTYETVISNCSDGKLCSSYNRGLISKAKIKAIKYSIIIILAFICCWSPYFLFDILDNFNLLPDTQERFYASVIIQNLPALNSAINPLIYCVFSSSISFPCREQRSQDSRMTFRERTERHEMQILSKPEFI
Structure (SMILES),Potency,"activity change, negative = inhibition"
CCOC(=O)c1cnc(-n2nc(C)cc2C)nc1Nc1ccc(OC)cc1,"inconclusive [inhibitor, partial curve]",
O=C(NC(=S)N1CCCCCC1)c1ccccc1Cl,,inactive: -28.3%
N#Cc1nc(-c2ccccc2F)oc1NC1CCCCC1,"inconclusive [inhibitor, single point]",
Cc1ccc2c(c1)C1C=CCC1C(C(=O)O)N2 (stereo unspecified),,inactive: -17%
COc1ccc(N2CCN(C(=O)Cc3ncc(C(F)(F)F)cc3Cl)CC2)cc1,"inconclusive [inhibitor, single point]",
COCCn1c(SC(C)C(=O)Nc2ccc3c(c2)OCCO3)nc2ccccc2c1=O (stereo unspecified),"inconclusive [inhibitor, partial curve, poor fit]",
Cc1ccc(C(=O)NCc2ccc(Cl)c(Cl)c2)o1,,inactive: 6.37% [at 46.1 µM]
Cn1c(SCc2ccc(Cl)cc2)nnc1C1CC1,,inactive: 0.444%
COCCn1cnc2c(c1=O)c1nc3ccccc3nc1n2/N=C/c1ccco1,,inactive: -15.3%
Cc1cccc(NC(=S)NC(=O)/C=C/c2ccco2)n1,"inconclusive [inhibitor, partial curve]",
CCOC(=O)COc1ccc2nsnc2c1,,inactive: -12.9% [at 46.1 µM]
COc1ccc(NC(=O)/C=C/c2ccc(Cl)cc2)cc1,"inconclusive [inhibitor, full curve, poor fit]",
COc1ccc(/C=C2\SC(=O)N(CCC(=O)Nc3ccc(S(=O)(=O)Nc4nccs4)cc3)C2=O)cc1,,inactive: 7.11%
O=C(CN1CCN(c2ncc(C(F)(F)F)cc2Cl)CC1)N1CCN(c2ncc(C(F)(F)F)cc2Cl)CC1,"inconclusive [inhibitor, single point]",
Cc1cnc(NC(=O)CN(C)S(=O)(=O)c2ccc(Cl)cc2)s1,,inactive: 14.3% [at 46.1 µM]
CCc1nc(NCCN2CCOCC2)c2oc3ccccc3c2n1,,inactive: 8.81% [at 46.1 µM]
C=CCOc1c(Br)cc(CNc2ccc(NC(=O)CCC)cc2)cc1OCC,"inconclusive [inhibitor, single point]",
CCOC(=O)N1CCN(C(=O)CSc2nnc(Cc3cccn3C)n2CCc2ccccc2)CC1,,inactive: -22.1% [at 46.1 µM]
COc1ccc2c(c1)C(C)CC(C)(C)N2C(=O)CSc1nc2ccccc2s1 (stereo unspecified),"inconclusive [inhibitor, partial curve]",
CC(C)NC(=O)NC(=O)COC(=O)c1ccccc1Oc1ccccc1,"inconclusive [inhibitor, single point]",
COc1cccc(CN(Cc2cccnc2)S(=O)(=O)c2ccc(-n3cnnn3)c(C)c2)c1OC,"inconclusive [inhibitor, partial curve, poor fit]",
COc1ccc(/C=N/NC(=O)c2ccc(Cn3cc([N+](=O)[O-])cn3)o2)c(OC)c1C,,inactive: -5.64% [at 46.1 µM]
CCc1ccc(CNCc2cccnc2)cc1,"inconclusive [inhibitor, single point]",

Structure (SMILES),Potency,"activity change, negative = inhibition"
O=c1cc(CCl)nc2scc(-c3ccccc3)n12,"inconclusive [activator, single point]",
COc1ccc2nc(NC(=O)C3CCCN(S(=O)(=O)c4cccs4)C3)sc2c1 (stereo unspecified),"inconclusive [inhibitor, partial curve]",
Cc1ccc(Cl)cc1N1CCN(C(=O)c2cc3c(=O)n(C)c4ccccc4c3n2C)CC1,"inconclusive [inhibitor, single point]",
c1ccc(Cn2cnc3ccccc32)cc1,,inactive: -2.99% [at 46.1 µM]
O=C(c1ccc(Cn2cc(Cl)c([N+](=O)[O-])n2)cc1)N1CCN(Cc2ccccc2)CC1,"inconclusive [activator, single point]",
CCn1nc(C)c(NC(=O)CCCSc2nc(-c3ccco3)cc(C(F)(F)F)n2)c1C,"inconclusive [inhibitor, single point]",
Cc1ccc(-c2cc(C(F)F)n3ncc(C(=O)Nc4c(C)nn(Cc5ccccc5Cl)c4C)c3n2)cc1,active: 3.98 µM,
CCN(CC)C(=O)c1sc(NC(=O)c2ccoc2C)c(C(=O)OC)c1C,"inconclusive [inhibitor, partial curve]",
C=CS(=O)c1sc(Cl)c(N2CCOCC2)c1[N+](=O)[O-] (stereo unspecified),"inconclusive [inhibitor, single point]",
Clc1ccc(-n2nnnc2-c2cnc3ccccc3c2-c2ccccc2)cc1,"inconclusive [activator, single point]",
COc1cc2c(cc1OC)-c1cc(=Nc3c(C)cc(C)cc3C)n(C)c(=O)n1CC2,"inconclusive [inhibitor, partial curve]",
COC(=O)c1cnn(-c2ccc(F)cc2F)c1/C=N/NC(=S)NC(C)(C)C,"inconclusive [activator, partial curve]",
COc1ccc(C(O)P(=O)(OC(C)C)OC(C)C)cc1OC (stereo unspecified),"inconclusive [inhibitor, single point]",
CCc1cc(=O)oc2cc(C)cc(OCC(C)=O)c12,,inactive: -18.8%
O=c1cc(-c2ccccc2)nc2nc(CCc3ccccc3)[nH]n12,,inactive: -12.6% [at 46.1 µM]
Cc1cc(C)n(-c2cccc(Cl)c2)c(=O)c1C#N,"inconclusive [inhibitor, partial curve]",
Cc1ccc(/C=C/C(=O)N2CCN(c3ccc(F)cc3)CC2)o1,,inactive: -9.83%
CC(=O)n1cc(C(C[N+](=O)[O-])SCCN)c2ccccc21 (stereo unspecified),active: 10 µM,
CCOc1ccccc1CNC(=O)Cn1c(=O)oc2ccccc21,"inconclusive [inhibitor, full curve, poor fit]",
C=CCn1c(SCC(=O)N2CCc3ccccc3C2)nc2sc(C)cc2c1=O,"inconclusive [inhibitor, single point]",
Cc1cc(C)c2[nH]c(=O)c(CN(Cc3ccc4c(c3)OCO4)Cc3nnnn3C3CCCC3)cc2c1,"inconclusive [inhibitor, partial curve]",
Cc1ccc(NC(=O)CN(C)c2ccc(S(=O)(=O)N3CCN(C)CC3)cn2)cc1,"inconclusive [inhibitor, partial curve, poor fit]",
COc1ccc(-c2noc(CSc3nnc(CCc4ccccc4)n3-c3ccccc3)n2)cc1OC,"inconclusive [inhibitor, single point]",
